# Some of the results follow.
# Experiments:
# Assay in all cases: glycan array binding signal (z-score within array); higher = stronger binding
# Conditions in all cases: glycan notation: IUPAC condensed, linker removed
# [1] = target: Man(a1-2)Man(a1-6)[Man(a1-3)]Man(a1-6)[Man(a1-2)Man(a1-2)Man(a1-3)]Man(b1-4)GlcNAc(b1-4)GlcNAc
# In short: (§1)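 From the Consortium for Functional Glycomics database, 3228 arrays were curated, keeping only those whose protein sequence was available. Binding is given as a within-array Z-score averaged across arrays sharing a protein sequence and across linkers. Negative Z-scores can be read as non-binding.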
# Man(a1-3)[Man(a1-6)]Man = target: Man(a1-3)[Man(a1-6)]Man
# In short: as §1
# [2] = target: Man(a1-3)[Man(a1-6)]Man(a1-6)[Man(a1-2)Man(a1-3)]Man(b1-4)GlcNAc(b1-4)GlcNAc
# In short: as §1
# [3] = target: Man(a1-3)[Man(a1-6)]Man(a1-6)[Man(a1-3)]Man
# In short: as §1
# [4] = target: Man(a1-3)[Man(a1-6)]Man(a1-6)[Man(a1-3)]Man(b1-4)GlcNAc(b1-4)GlcNAc
# In short: as §1
# [5] = target: Man(a1-3)[Man(a1-6)]Man(b1-4)GlcNAc(b1-4)GlcNAc
# In short: as §1
# Man(a1-6)Man = target: Man(a1-6)Man
# In short: as §1
# Man(b1-4)GlcNAc = target: Man(b1-4)GlcNAc
# In short: as §1
# Neu5Ac(a2-3)Gal = target: Neu5Ac(a2-3)Gal
# In short: as §1
# [6] = target: Neu5Ac(a2-3)Gal(b1-3)GalNAc
# In short: as §1
# [7] = target: Neu5Ac(a2-3)Gal(b1-3)GalNAc(b1-3)Gal(a1-4)Gal(b1-4)Glc
# In short: as §1
# [8] = target: Neu5Ac(a2-3)Gal(b1-3)GalNAc(b1-4)[Neu5Ac(a2-3)]Gal(b1-4)Glc
# In short: as §1
# [9] = target: Neu5Ac(a2-3)Gal(b1-3)GalNAc6S
# In short: as §1
# [10] = target: Neu5Ac(a2-3)Gal(b1-3)GlcNAc
# In short: as §1
# [11] = target: Neu5Ac(a2-3)Gal(b1-3)GlcNAc(b1-2)Man(a1-3)[Neu5Ac(a2-3)Gal(b1-3)GlcNAc(b1-2)Man(a1-6)]Man(b1-4)GlcNAc(b1-4)GlcNAc
# In short: as §1
# [12] = target: Neu5Ac(a2-3)Gal(b1-3)GlcNAc(b1-3)Gal(b1-3)GlcNAc
# In short: as §1
# [13] = target: Neu5Ac(a2-3)Gal(b1-3)GlcNAc(b1-3)Gal(b1-4)GlcNAc
# In short: as §1
# [14] = target: Neu5Ac(a2-3)Gal(b1-3)GlcNAc(b1-3)GalNAc
# In short: as §1
# [15] = target: Neu5Ac(a2-3)Gal(b1-3)GlcNAc6S
# In short: as §1
# [16] = target: Neu5Ac(a2-3)Gal(b1-3)[Fuc(a1-4)]GlcNAc
# In short: as §1
# [17] = target: Neu5Ac(a2-3)Gal(b1-3)[Fuc(a1-4)]GlcNAc(b1-3)Gal(b1-3)[Fuc(a1-4)]GlcNAc
# In short: as §1
# [18] = target: Neu5Ac(a2-3)Gal(b1-3)[Fuc(a1-4)]GlcNAc(b1-3)Gal(b1-4)[Fuc(a1-3)]GlcNAc
# In short: as §1
# [19] = target: Neu5Ac(a2-3)Gal(b1-3)[Neu5Ac(a2-3)Gal(b1-4)]GlcNAc
# In short: as §1
# [20] = target: Neu5Ac(a2-3)Gal(b1-3)[Neu5Ac(a2-6)]GalNAc
# In short: as §1
# Neu5Ac(a2-3)Gal(b1-4)Glc = target: Neu5Ac(a2-3)Gal(b1-4)Glc
# In short: as §1
# [21] = target: Neu5Ac(a2-3)Gal(b1-4)GlcNAc
# In short: as §1
# [22] = target: Neu5Ac(a2-3)Gal(b1-4)GlcNAc(b1-2)Man(a1-3)[GlcNAc(b1-2)Man(b1-4)GlcNAc(b1-2)Man(a1-6)]Man(b1-4)GlcNAc(b1-4)GlcNAc
# In short: as §1
# [23] = target: Neu5Ac(a2-3)Gal(b1-4)GlcNAc(b1-2)Man(a1-3)[Neu5Ac(a2-6)Gal(b1-4)GlcNAc(b1-2)Man(a1-6)]Man(b1-4)GlcNAc(b1-4)GlcNAc
# In short: as §1
# [24] = target: Neu5Ac(a2-3)Gal(b1-4)GlcNAc(b1-3)Gal(b1-3)GlcNAc
# In short: as §1
# [25] = target: Neu5Ac(a2-3)Gal(b1-4)GlcNAc(b1-3)Gal(b1-4)GlcNAc
# In short: as §1
# [26] = target: Neu5Ac(a2-3)Gal(b1-4)GlcNAc(b1-3)Gal(b1-4)GlcNAc(b1-3)Gal(b1-4)GlcNAc
# In short: as §1
# [27] = target: Neu5Ac(a2-3)Gal(b1-4)GlcNAc(b1-3)Gal(b1-4)[Fuc(a1-3)]GlcNAc
# In short: as §1
# [28] = target: Neu5Ac(a2-3)Gal(b1-4)GlcNAc(b1-3)GalNAc
# In short: as §1
# [29] = target: Neu5Ac(a2-3)Gal(b1-4)GlcNAc(b1-6)[Gal(b1-3)]GalNAc
# In short: as §1
# [30] = target: Neu5Ac(a2-3)Gal(b1-4)GlcNAc(b1-6)[Neu5Ac(a2-3)Gal(b1-3)]GalNAc
# In short: as §1
# [31] = target: Neu5Ac(a2-3)Gal(b1-4)GlcNAc6S
# In short: as §1
# [32] = target: Neu5Ac(a2-3)Gal(b1-4)[Fuc(a1-3)]GlcNAc
# In short: as §1
binder,measurement,setting,value
"cupB6 (Pseudomonas aeruginosa), Q02SP7 (protein) MSMRLFPGRVSLRRRPGAQARQALVLGLCCLTGGQAWALNEVALNCSFGNGKGLPWRVVNELTSGTAKGTVLFARPVSLFLSYKPQASQEAHELVLGGNWSGVGYPGPYGTVASDVKGIGYRISVDAQDGVKRVIPVDNQPHALDKRVTSFSGSTTSDYLQELVLTVDPGELPAGDLKVTSVSGSATLNLWAVDRLKGEASIGSVLAVPADNYPTGVCRKPYSLIGPASIAIGGGPPPPPIPKKCKVEVGREINVKLGSVALKNFPRVNDTSTERSFDISLSECAALAKPEIAFRDKYVSAQQADPTILSLKSGGAAGFGIVVKNGLDQQRIRFDGTPYPMRRVGDSADLPLSAAYIRIGAEGELKAGVADGAAEFTFTFP",glycan array binding signal (z-score),[1],-0.157
same,glycan array binding signal (z-score),Man(a1-3)[Man(a1-6)]Man,-0.156
same,glycan array binding signal (z-score),[2],-0.118
same,glycan array binding signal (z-score),[3],-0.087
same,glycan array binding signal (z-score),[4],-0.11
same,glycan array binding signal (z-score),[5],-0.032
same,glycan array binding signal (z-score),Man(a1-6)Man,-0.285
same,glycan array binding signal (z-score),Man(b1-4)GlcNAc,-0.106
same,glycan array binding signal (z-score),Neu5Ac(a2-3)Gal,-0.176
same,glycan array binding signal (z-score),[6],-0.101
same,glycan array binding signal (z-score),[7],-0.167
same,glycan array binding signal (z-score),[8],0.058
same,glycan array binding signal (z-score),[9],-0.23
same,glycan array binding signal (z-score),[10],-0.118
same,glycan array binding signal (z-score),[11],-0.044
same,glycan array binding signal (z-score),[12],0.048
same,glycan array binding signal (z-score),[13],-0.113
same,glycan array binding signal (z-score),[14],-0.04
same,glycan array binding signal (z-score),[15],-0.067
same,glycan array binding signal (z-score),[16],-0.058
same,glycan array binding signal (z-score),[17],0.124
same,glycan array binding signal (z-score),[18],-0.153
same,glycan array binding signal (z-score),[19],-0.26
same,glycan array binding signal (z-score),[20],0.048
same,glycan array binding signal (z-score),Neu5Ac(a2-3)Gal(b1-4)Glc,-0.146
same,glycan array binding signal (z-score),[21],0.123
same,glycan array binding signal (z-score),[22],0.007
same,glycan array binding signal (z-score),[23],-0.034
same,glycan array binding signal (z-score),[24],-0.03
same,glycan array binding signal (z-score),[25],-0.044
same,glycan array binding signal (z-score),[26],-0.134
same,glycan array binding signal (z-score),[27],-0.157
same,glycan array binding signal (z-score),[28],-0.119
same,glycan array binding signal (z-score),[29],-0.006
same,glycan array binding signal (z-score),[30],0.129
same,glycan array binding signal (z-score),[31],-0.163
same,glycan array binding signal (z-score),[32],-0.081

# — the supplement of paper PMC8728848
